The values that follow come from PMC7819943, “Rice protein-binding microarrays: a tool to detect cis-acting elements near promoter regions in rice”.

The list shows a part of the results.

In the test the target is T1, OsWOX13 (Oryza sativa, UniProt Q5QMM3 1-267).
T1 sequence: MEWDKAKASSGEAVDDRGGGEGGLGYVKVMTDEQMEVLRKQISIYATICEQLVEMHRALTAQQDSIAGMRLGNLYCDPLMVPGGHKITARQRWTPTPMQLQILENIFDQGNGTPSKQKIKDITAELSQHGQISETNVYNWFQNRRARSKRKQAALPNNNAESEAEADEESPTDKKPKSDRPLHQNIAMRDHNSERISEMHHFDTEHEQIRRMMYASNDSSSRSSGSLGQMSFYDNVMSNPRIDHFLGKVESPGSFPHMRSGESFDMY
Put plainly: protein-binding microarray (RPBM); PBS, 2% BSA, 51.3 ng/ul salmon testes DNA, 50 uM zinc acetate, 200 nM TF, 25 C, 1 h; high values mean tight binding. Conditions: protein: recombinant; tags: N-terminal polyhistidine and DsRed monomer fusion (pET32a); label: CyDye5-dUTP incorporated in the synthesized complementary strand; 3' TTTTT single-stranded linker to array surface; dsDNA, one strand shown. In outline: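 The binding signal is fluorescence intensity per array feature (arbitrary units). Readings came from an Axon 4000B scanner after a washed, 2% BSA-blocked, double-stranded custom Agilent array had been incubated for 1 h at 25 °C with 200 nM protein and 50 µM zinc acetate. The protein was a Ni–NTA-purified transcription factor fused N-terminally to polyhistidine and DsRed, expressed in E. coli BL21-CodonPlus.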
“ACCATGATTTGATAATATGGTGCTACAGTAAACATTGGCTCGGAGTCACCTAGTGCAG”: the binding signal is 27400 fluorescence intensity (a.u.).
Turning to “CCGCTCAAATTACGCGTCTCCTCATCCCCGGCCGCGCGCCCGGAGTCACCTAGTGCAG”, the binding signal was 3250 fluorescence intensity (a.u.).
For the sequence “CCATGATTTTGATGGCCGACTGTCCCACAGGTAGGATACGCGGAGTCACCTAGTGCAG”, the binding signal was 23800 fluorescence intensity (a.u.).
Under “GATGATGGATTGGAAAGGCAAGTAAGCTGGAGTAGGTGGTCGGAGTCACCTAGTGCAG” stands 38000 fluorescence intensity (a.u.); under “AAGTCCCTAATCACCGTCTGGACGCCGTGGTGACCATGGCCGGAGTCACCTAGTGCAG”, 3520 fluorescence intensity (a.u.); under “GCCATAATTACGCAGGCCGCCATCGTCGTCGTCGTCTTCGCGGAGTCACCTAGTGCAG”, 12600 fluorescence intensity (a.u.).
Regarding “CCGGTAAATCACTAATAACCGGCACCTATGAGACATATGCCGGAGTCACCTAGTGCAG”, the binding signal is 5240 fluorescence intensity (a.u.).
Consider “GATAAATTATACATGAGAAAGAGCTAGAATCCTTCTCAAACGGAGTCACCTAGTGCAG”, for which the binding signal was 8110 fluorescence intensity (a.u.).
On to “ATATTAATTTATCTTCTACTTAATAACAATAATAGTGTAGCGGAGTCACCTAGTGCAG”, for which the binding signal is 17700 fluorescence intensity (a.u.).
Consider “CATGCTGATAATTGGAACGCTATATTGTTTTGTAATAGTACGGAGTCACCTAGTGCAG”, for which the binding signal is 9350 fluorescence intensity (a.u.).
Take “TCAGCTTAATTTAAACGGTTCTTTGCTTTCCTGTAATATACGGAGTCACCTAGTGCAG”: the binding signal is 7320 fluorescence intensity (a.u.).
“ACCAATCAATCAAGAACAAGAAGAGCTAGCTGCTAGCTGTCGGAGTCACCTAGTGCAG”: the binding signal is 17000 fluorescence intensity (a.u.).
As to “ACCAGACATGCATTTGTGATTAAACTCCTGCAATATACTACGGAGTCACCTAGTGCAG”, the binding signal was 4290 fluorescence intensity (a.u.).
Under “AAGTAATCACACACGTCTAATCACGGTGAGGCCACGCGAGCGGAGTCACCTAGTGCAG” stands 4410 fluorescence intensity (a.u.); under “AAATTAGATTGAATTTTGATGGCATGTTACGCTGTGTTCGCGGAGTCACCTAGTGCAG”, 51100 fluorescence intensity (a.u.); under “GTTTCATTTTAATTGACGTTTTGGACAATGACACGGTCTACGGAGTCACCTAGTGCAG”, 23000 fluorescence intensity (a.u.).
As to “CGAGACTATCATCTAATGGACAACTCATCTTTTAATTGTGCGGAGTCACCTAGTGCAG”, the binding signal was 4330 fluorescence intensity (a.u.).
In the case of “CATCTTGATTATGTTACATACAGATTGCAGGATGGATATTCGGAGTCACCTAGTGCAG”, the binding signal was 23000 fluorescence intensity (a.u.).
Then “TATATATATATATATATATATATATATATGATAATTTGTTCGGAGTCACCTAGTGCAG”, with 8270 fluorescence intensity (a.u.); and “GGGGCATTTTGAAATGGATGATTTGAACCGATTATAAAAGCGGAGTCACCTAGTGCAG”, with 3980 fluorescence intensity (a.u.); and “AATTACAATGTAATTATATCACGATTATATTATTACTTACCGGAGTCACCTAGTGCAG”, with 11000 fluorescence intensity (a.u.).
Then “ATAGATGACATTTATGTAATTTATTTTCATAAGACGAATGCGGAGTCACCTAGTGCAG”, with 21900 fluorescence intensity (a.u.); and “CGTTGATTTTATTTGGCAGGGAAGGAGATCCGAGAGGAAGCGGAGTCACCTAGTGCAG”, with 18800 fluorescence intensity (a.u.); and “CTGACCAACGTTGATAATTGCAATATTATAGTTATGGTGACGGAGTCACCTAGTGCAG”, with 4410 fluorescence intensity (a.u.).
With “TCTGATTTCAGTGGGAATGCATCTCTTTTCCAGCGGATCACGGAGTCACCTAGTGCAG”, the binding signal was 4850 fluorescence intensity (a.u.).
Take “AAATAAATTTGACGTGAAGTGGAATGACAGCTGGTGAACTCGGAGTCACCTAGTGCAG”: the binding signal is 11400 fluorescence intensity (a.u.).
As for “ATTGTGTGATTTATCTTGTTTTAAAGATTTAATTGCCATGCGGAGTCACCTAGTGCAG”, the binding signal was 18400 fluorescence intensity (a.u.).
As to “GTATAATTGGAGTTTGTAAAGTTCGTTTCTTGTAAGGGAACGGAGTCACCTAGTGCAG”, the binding signal is 36800 fluorescence intensity (a.u.).
Take “TGATTAATTAGCGAGAGTAATTAATTAATTATAGCCTGCGCGGAGTCACCTAGTGCAG”: the binding signal is 61600 fluorescence intensity (a.u.).
Turning to “ATTTAACGTGATAACTGTTTGTTTCAATGGATATCTAATGCGGAGTCACCTAGTGCAG”, the binding signal was 6540 fluorescence intensity (a.u.).
As to “AGCATAAGTTATCTGAGTTAATTACAGTTGCTCAGCATTCCGGAGTCACCTAGTGCAG”, the binding signal is 4180 fluorescence intensity (a.u.).
In the case of “ATGCTCACTGATTTAATTTGAAATCGTTGCTCCATTTCACCGGAGTCACCTAGTGCAG”, the binding signal was 21900 fluorescence intensity (a.u.).
Consider “TTAGTAATTGAACTTGATTCTCTCTTCGTTTCAGGTTATACGGAGTCACCTAGTGCAG”, for which the binding signal was 44300 fluorescence intensity (a.u.).
With “ATTGACATGGAGTCATGGACACTCTCCCTGCCTCCTCCCTCGGAGTCACCTAGTGCAG”, the binding signal was 3240 fluorescence intensity (a.u.).
Turning to “AGTCAATCAGTCAATCTGGACCGTCCACGGCAGAAGAAGTCGGAGTCACCTAGTGCAG”, the binding signal was 30700 fluorescence intensity (a.u.).
For “ATATTAATTTACTCCAATTTATATACTCCACGACAGGAGCCGGAGTCACCTAGTGCAG”, the binding signal is 39500 fluorescence intensity (a.u.).
For the sequence “AAGAAGATTAGAATGAAACCATCGAAAAGCCTCGTTCGTCCGGAGTCACCTAGTGCAG”, the binding signal was 5250 fluorescence intensity (a.u.).
As for “ACATTTTAATTTGTAGGGAGAGGTACTATGGGCTTAACTTCGGAGTCACCTAGTGCAG”, the binding signal is 6450 fluorescence intensity (a.u.).
On to “GTCATCTGATTGTCGTCCATTGTCTCAGTGTCTGTCTGTCCGGAGTCACCTAGTGCAG”, for which the binding signal is 17800 fluorescence intensity (a.u.).
Turning to “GATTAGCTTTGTGATTAGTAAGCAACTTAACACAAGATAGCGGAGTCACCTAGTGCAG”, the binding signal is 5060 fluorescence intensity (a.u.).
Under “TCGTTCTTCATGGTTGGGGCTGATTAGGTTGATGAGATAGCGGAGTCACCTAGTGCAG” stands 3850 fluorescence intensity (a.u.); under “CCTGAGCAATCATGTGTCTTATATATTTGCCATGATGCATCGGAGTCACCTAGTGCAG”, 6770 fluorescence intensity (a.u.).
